# Hit rate of the full screen: of about 310,000 compounds, about 14,000 (4.5%) showed an effect of 50% or more. The effect is printed as a negative number. Some of the results follow.
# Target: human ether-à-go-go-related gene (hERG) potassium channel (human, UniProt Q12809)
# Experiment: primary screen, population patch clamp on CHO cells stably expressing hERG
# 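Further: peak tail current of the secondary pulse compared with the same well before compound.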
# Chain of human ether-à-go-go-related gene (hERG) potassium channel (Q12809 whole entry, looked up): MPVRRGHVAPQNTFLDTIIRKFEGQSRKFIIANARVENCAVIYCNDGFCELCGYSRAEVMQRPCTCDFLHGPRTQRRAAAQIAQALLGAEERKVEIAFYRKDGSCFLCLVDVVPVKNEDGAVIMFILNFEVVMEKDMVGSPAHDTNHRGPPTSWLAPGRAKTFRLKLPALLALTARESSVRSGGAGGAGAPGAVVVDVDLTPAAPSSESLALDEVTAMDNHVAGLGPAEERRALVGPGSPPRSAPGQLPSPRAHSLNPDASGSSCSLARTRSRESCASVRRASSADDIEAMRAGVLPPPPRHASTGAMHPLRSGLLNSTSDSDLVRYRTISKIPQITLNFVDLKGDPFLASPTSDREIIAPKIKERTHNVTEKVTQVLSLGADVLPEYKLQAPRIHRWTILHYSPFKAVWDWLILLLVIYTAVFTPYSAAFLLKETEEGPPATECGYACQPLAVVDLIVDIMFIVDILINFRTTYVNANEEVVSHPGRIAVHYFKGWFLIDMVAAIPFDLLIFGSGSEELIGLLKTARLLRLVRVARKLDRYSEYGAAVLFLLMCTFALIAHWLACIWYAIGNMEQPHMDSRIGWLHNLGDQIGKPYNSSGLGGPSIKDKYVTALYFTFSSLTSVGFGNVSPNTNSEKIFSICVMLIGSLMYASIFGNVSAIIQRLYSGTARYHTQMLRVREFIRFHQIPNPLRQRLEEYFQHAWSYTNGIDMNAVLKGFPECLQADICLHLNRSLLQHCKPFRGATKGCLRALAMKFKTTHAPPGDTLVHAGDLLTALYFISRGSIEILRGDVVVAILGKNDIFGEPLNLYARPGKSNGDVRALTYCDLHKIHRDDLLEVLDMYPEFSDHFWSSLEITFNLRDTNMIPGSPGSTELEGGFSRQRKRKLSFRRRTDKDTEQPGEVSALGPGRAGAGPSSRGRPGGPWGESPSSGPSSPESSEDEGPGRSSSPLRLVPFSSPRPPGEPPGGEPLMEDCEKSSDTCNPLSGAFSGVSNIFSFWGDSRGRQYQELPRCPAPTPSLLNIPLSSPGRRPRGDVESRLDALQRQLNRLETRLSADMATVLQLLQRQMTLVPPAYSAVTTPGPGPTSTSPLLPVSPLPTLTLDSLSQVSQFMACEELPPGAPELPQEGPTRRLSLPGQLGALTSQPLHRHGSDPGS
row,SMILES,"hERG current change (%, negative = inhibition) at 10uM"
1,N#C/C(=C\c1ccccc1O)C(=O)Nc1cccnc1,6.42%
2,O=C(Nc1ccccc1C(=O)O)c1cc(S(=O)(=O)N2CCCCC2)c(Cl)cc1Cl,13.2%
3,Cc1ccccc1C(=O)Nc1nnc(-c2ccco2)o1,26.4%
4,O=C(COC(=O)Cc1ccc(Cl)cc1)Nc1ccccc1F,-10.5%
5,COc1cc(NC(=S)N2CCN(CCO)CC2)cc(OC)c1,13.7%
6,C=CCn1c(O)c(C2=c3ccccc3=NC2=O)s/c1=N/c1nccs1,6.79%
7,O=C(Nc1ccc(F)cc1)C1CCN(S(=O)(=O)c2ccc3[nH]c(=O)oc3c2)CC1,-1.24%
8,Nc1nnnn1/N=C/c1ccccc1OCc1ccc(Cl)cc1Cl,-5.6%
9,CCOC(=O)C1CCCN(C(=O)CNS(=O)(=O)c2ccc(Br)s2)C1 (centres unmarked),-23.4%
10,CCNC(=O)NC(=O)COC(=O)CCc1nc(=O)c2ccccc2n1C,4.87%
11,CCC(=O)O/N=C(\N)c1ccc(Oc2cc(C)c(Cl)c(C)c2)c([N+](=O)[O-])c1,5.6%
12,O=C(CN1CCN(Cc2ccccc2F)CC1)Nc1ccccc1Cl,-27.6%
13,CCOC(=O)N1CCN(S(=O)(=O)c2ccc(C(=O)N(CCCN(C)C)c3nc4c(F)cc(F)cc4s3)cc2)CC1.Cl,-51.3%
14,CCN(Cc1ccccc1)C(=O)c1ccc(C)c(S(=O)(=O)N2CCCCC2)c1,-18.4%
15,Cc1ccc(S(=O)(=O)CCC(=O)OCCOc2cccc(Br)c2)cc1,-7.39%
16,Oc1ccc(Cl)cc1C1=NCCNC(C(F)(F)C(F)F)=C1,-48.3%
17,CNS(=O)(=O)c1cccc(C(=O)OCC(=O)N2c3ccccc3NC(=O)C2(C)C)c1,-12.6%
18,CCC1=NC(c2ccccc2)N(O)C1(C)C (centres unmarked),15.8%
19,COC(=O)C1CCN(C(c2cccs2)c2sc3nc(C)nn3c2O)CC1 (centres unmarked),-6.71%

row,SMILES,"hERG current change (%, negative = inhibition) at 10uM"
1,COc1ccccc1C(=O)O/N=C(/c1ccncc1)c1ccc([N+](=O)[O-])cc1,-67.9%
2,Cc1ccc2[nH]c3c(=O)n(CC(=O)NCCCN(C)Cc4ccccc4)ncc3c2c1,-31.6%
3,CN(CC(=O)N1CCN(c2ccccn2)CC1)S(=O)(=O)c1ccc(Cl)cc1,-46.2%
4,COc1cccc(OCc2cc(/C=N/Nc3ccc(C(=O)O)cc3)ccc2OC)c1,7.71%
5,O=C1Nc2ccccc2C(=O)N2[C@H](c3cccc(Br)c3)[C@@H]3C(=O)N(Cc4ccccc4)C(=O)[C@@H]3[C@H]12,-10.1%
6,O=S(=O)(NCCC1=CCCCC1)c1ccc(Br)cc1,-1.61%
7,O=C(NCC1CCCO1)C1CCN(C(=O)c2ccc(Br)cc2)CC1 (centres unmarked),-10.1%
8,CCCC(=O)Nc1ccc(C(=O)COC(=O)c2cc(C)oc2C)cc1,-0.605%
9,Cc1cccc(NC(=O)Cn2c(O)c(N=NC(N)=S)c3ccccc32)c1,11.8%
10,CCN1CCN(C(=O)N2CCOCC2)CC1,15.5%
11,Cc1ccc(S(=O)(=O)Nc2ccc3c(c2)n(C)c(=O)n3C)c(C)c1,4.89%
12,Cn1cnnc1Sc1ccc(C(F)(F)F)cc1[N+](=O)[O-],2.45%
13,Cc1ccc(Nc2ncnc3c2nnn3Cc2ccccc2)cc1,8.07%
14,COc1cccc(C2CC(=O)C3=C(C2)Nc2ccccc2N(C(=O)CCC(=O)O)C3c2ccc(F)cc2)c1 (centres unmarked),5.1%
15,O=C(Nc1ccc2c(c1)OCCO2)C(=S)NCc1ccccc1,15%
16,Clc1ccc(CONc2ncnc3nonc23)c(Cl)c1,-14.6%
17,CCN(CC)c1ccc(CN(C(=O)c2cc(OC)c(OC)c(OC)c2)C2CCS(=O)(=O)C2)cc1 (centres unmarked),0.346%
18,Cc1oc(CC(C)C)cc1C(=O)Nc1cccc2ccccc12,-58.8%
19,CCOc1ccc(NC(=O)CCC(=O)Oc2ccc(C)cc2)cc1,21.9%

row,SMILES,"hERG current change (%, negative = inhibition) at 10uM"
1,Nc1ccc(N2CCN(c3ccc(Cl)c(Cl)c3)CC2)cc1,0.35%
2,COc1ccc([C@H]2Cc3cccc(O)c3C(=O)O2)cc1O,-14%
3,CCC(CC)NC(=O)COC(=O)CCC(=O)c1ccc(Cl)cc1,-0.492%
4,O=P(Nc1ccccc1Cl)(c1ccccc1)c1nc2c(s1)CCCC2 (centres unmarked),-49.2%
5,COC(=O)[C@H](CC(C)C)NC(=O)NCCC1=CCCCC1,1.61%
6,Cc1cc(C)c(-c2c(O)c3cccc4c3n(c2=O)CCC4)c(C)c1,-20.7%
7,CCN(CC)C(=O)C1=C(C)Nc2nnnn2C1c1cccnc1 (centres unmarked),3.24%
8,CCN(CC(=O)Nc1ccc(NC(C)=O)cc1)C(=O)CCCSc1nc2ccccc2[nH]1,-0.716%
9,O=C(CCNS(=O)(=O)c1ccc(Cl)cc1)N1CCCCCC1,-11.3%
10,O=S(=O)(c1ccccc1F)N1CCN(CC(O)c2ccccc2)CC1 (centres unmarked),2.67%
11,O=C(C1CCCN(Cc2ccc([N+](=O)[O-])cc2)C1)N1CCCCC1.O=C(O)C(=O)O (centres unmarked),-28.4%
12,CSc1nnc2ccc(-c3ccccn3)nn12,12.4%
13,COC(=O)C1(C)Nc2ccccc2C(=O)N1c1ccccc1OC (centres unmarked),10.8%
14,CCCCNC(=S)Nc1ccc2nc3n(c(=O)c2c1)CCCCC3,-43.6%
15,CCOC(=O)C1=C(C)NC(=O)C1CC(=O)O (centres unmarked),35.5%
16,O=C(O)/C=C/c1ccc(S(=O)(=O)Nc2ccc3[nH]c(=O)[nH]c3c2)cc1,15.7%
17,CC(C)N1CCC(NC(=O)Nc2ccc3c(c2)OCO3)CC1,4.06%
18,CN(C)CCCN(C(=O)c1ccc(N2C(=O)CCC2=O)cc1)c1nc2c(F)cccc2s1.Cl,-0.103%

# Reference: paper PMC4336329 (PLoS ONE, 2015)
